Article PMC9518283 (Journal of Enzyme Inhibition and Medicinal Chemistry, 2022)

Columns and labels:
[1] = molecular target: T1, hMAO-B (Homo sapiens, UniProt P27338); assay: biochemical; conditions: for IC50: IC50 hMAO-B ± STD, mean of at least three experiments; for % of MAO-B activity (1 µM): compound at 1 µM
T1 construct: purchased Sigma-Aldrich (St. Louis, MO, USA)
T1 sequence (P27338 1-520): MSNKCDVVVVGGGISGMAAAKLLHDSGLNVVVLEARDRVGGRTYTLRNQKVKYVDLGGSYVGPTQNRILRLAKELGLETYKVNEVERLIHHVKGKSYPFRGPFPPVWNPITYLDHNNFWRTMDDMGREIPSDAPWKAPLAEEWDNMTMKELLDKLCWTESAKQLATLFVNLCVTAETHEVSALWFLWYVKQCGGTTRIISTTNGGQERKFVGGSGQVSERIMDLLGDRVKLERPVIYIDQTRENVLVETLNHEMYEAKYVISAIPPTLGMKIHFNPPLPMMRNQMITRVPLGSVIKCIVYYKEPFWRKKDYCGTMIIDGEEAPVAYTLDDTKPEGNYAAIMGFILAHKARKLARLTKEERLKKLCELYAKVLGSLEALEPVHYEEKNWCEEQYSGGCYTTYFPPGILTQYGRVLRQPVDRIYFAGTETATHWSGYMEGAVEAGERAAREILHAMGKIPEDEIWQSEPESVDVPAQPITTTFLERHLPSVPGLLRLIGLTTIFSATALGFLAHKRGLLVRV
Experimental: (§1) The hMAO-A and hMAO-B enzymes were purchased from Sigma-Aldrich (St. Louis, MO, USA). […] The mixture was pre-incubated at 37 °C for 5 min and subsequently substrate kynuramine was added to the final concentration of 60 µM in the case of hMAO-A and 30 µM in the case of hMAO-B. The final volume of reaction mixture was 0.1 mL. The whole reaction mixture was incubated at 37 °C for 30 min. The reaction was stopped by the addition of 200 µL acetonitrile/methanol mixture (ratio 1:1) and cooling down to 0 °C. […] Eluents: (A) 0.1% formic acid in water; (B) 0.1% formic acid in acetonitrile.

[2] = molecular target: T2, hMAO-A (Homo sapiens, UniProt P21397); assay: hMAO-A inhibition, kynuramine substrate, HPLC-MS; assay type: biochemical; conditions: residual enzyme activity; for % of MAO-A activity (1 µM): compound at 1 µM; for % of MAO-A activity (10 µM): compound at 10 µM
T2 construct: purchased Sigma-Aldrich (St. Louis, MO, USA)
T2 sequence (P21397 1-527): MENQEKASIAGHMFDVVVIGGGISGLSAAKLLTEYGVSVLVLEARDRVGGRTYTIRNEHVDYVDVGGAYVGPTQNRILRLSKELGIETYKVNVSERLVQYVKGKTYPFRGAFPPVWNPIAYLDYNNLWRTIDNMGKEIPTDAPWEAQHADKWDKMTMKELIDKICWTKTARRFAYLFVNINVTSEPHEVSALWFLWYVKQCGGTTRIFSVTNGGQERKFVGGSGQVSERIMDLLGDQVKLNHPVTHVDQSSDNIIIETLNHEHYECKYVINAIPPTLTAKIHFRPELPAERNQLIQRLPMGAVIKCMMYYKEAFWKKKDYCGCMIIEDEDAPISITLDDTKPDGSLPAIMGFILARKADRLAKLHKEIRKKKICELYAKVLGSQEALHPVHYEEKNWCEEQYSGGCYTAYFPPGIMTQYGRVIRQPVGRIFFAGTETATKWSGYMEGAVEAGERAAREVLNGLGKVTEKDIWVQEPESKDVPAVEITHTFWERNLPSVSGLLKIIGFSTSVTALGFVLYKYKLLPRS
Experimental: as §1

[3] = system: human hepatic stellate cells; parameters: method as in PMID 25792506; conditions: cited from earlier work
[4] = molecular target: human butyrylcholinesterase (hBChE; EC 3.1.1.8) (Homo sapiens, UniProt P06276); assay: biochemical; conditions: mean of at least three experiments; read-out: IC50 hBChE ± STD
Experimental: (§2) For that purpose, Ellman’s colorimetric assay was used[35].
(§3) The catalytic activity of both cholinesterases was determined by standard Ellman’s method adapted for 96-well plates. All tested inhibitors were freshly prepared in 50% DMSO/50% methanol at 10 mM concentration as stock solutions and then diluted in 0.1 M phosphate buffer, pH 7.4. […] The mixture was pre-incubated at 37 °C for 15 min and subsequently substrate (acetylthiocholine iodide or butyrylthiocholine iodide) was added to the final concentration of 1000 μM. The final volume of the reaction was 100 μL. The catalytic activity was evaluated as the amount of product (%) formed by enzyme after 10 min of incubation at 37 °C. The IC50 values from three independent experiments for each inhibitor concentration in triplicate were calculated using non-linear regression curve analysis in Prism version 7 Software (GraphPad Software Inc., San Diego, CA).

[5] = molecular target: human AChE (hAChE; EC 3.1.1.7) (Homo sapiens, UniProt P22303); assay: biochemical; conditions: for IC50: mean of at least three experiments, read-out: IC50 hAChE ± STD; for SI (hBChE/hAChE): ratio IC50(hBChE)/IC50(hAChE)
Experimental: as §2, §3

[6] = molecular target: hAChE (Homo sapiens, UniProt P22303); assay: Kinetic study of hAChE inhibition; conditions: reduction of Vmax, Km unchanged
Chain of hAChE (P22303 32-614): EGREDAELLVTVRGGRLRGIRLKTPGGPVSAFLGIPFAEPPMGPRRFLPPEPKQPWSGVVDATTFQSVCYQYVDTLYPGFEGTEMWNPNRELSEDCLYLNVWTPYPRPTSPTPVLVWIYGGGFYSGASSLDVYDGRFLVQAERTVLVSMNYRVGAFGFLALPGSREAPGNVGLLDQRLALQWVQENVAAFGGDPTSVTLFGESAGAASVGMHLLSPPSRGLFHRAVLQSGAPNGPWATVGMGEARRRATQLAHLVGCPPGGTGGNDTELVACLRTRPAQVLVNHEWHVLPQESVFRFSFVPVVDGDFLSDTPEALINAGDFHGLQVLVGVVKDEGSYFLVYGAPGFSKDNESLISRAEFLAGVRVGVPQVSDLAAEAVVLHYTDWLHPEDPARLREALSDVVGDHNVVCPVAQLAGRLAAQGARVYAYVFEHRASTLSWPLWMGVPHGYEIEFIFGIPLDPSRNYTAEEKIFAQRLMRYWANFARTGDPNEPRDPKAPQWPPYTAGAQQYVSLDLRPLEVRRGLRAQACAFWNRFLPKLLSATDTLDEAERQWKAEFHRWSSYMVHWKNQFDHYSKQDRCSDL

Chain of human AChE (hAChE; EC 3.1.1.7) (P22303 32-614): as above
Chain of human butyrylcholinesterase (hBChE; EC 3.1.1.8) (P06276 29-602): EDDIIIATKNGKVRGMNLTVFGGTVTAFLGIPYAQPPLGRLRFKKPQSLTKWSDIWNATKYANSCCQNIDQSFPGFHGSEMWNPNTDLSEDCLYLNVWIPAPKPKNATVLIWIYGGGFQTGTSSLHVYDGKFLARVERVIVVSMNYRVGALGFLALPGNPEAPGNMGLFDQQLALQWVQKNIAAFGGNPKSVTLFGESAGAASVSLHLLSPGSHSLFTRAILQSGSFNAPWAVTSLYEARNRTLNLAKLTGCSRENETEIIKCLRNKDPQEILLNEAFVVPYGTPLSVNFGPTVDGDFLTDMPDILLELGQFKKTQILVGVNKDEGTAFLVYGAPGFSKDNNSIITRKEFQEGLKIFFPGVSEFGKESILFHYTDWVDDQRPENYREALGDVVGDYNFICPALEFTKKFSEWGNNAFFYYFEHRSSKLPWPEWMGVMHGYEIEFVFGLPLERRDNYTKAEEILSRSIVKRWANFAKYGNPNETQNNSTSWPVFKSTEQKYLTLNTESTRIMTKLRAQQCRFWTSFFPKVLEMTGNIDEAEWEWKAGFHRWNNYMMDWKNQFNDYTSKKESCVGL

Q: Which IC50 [1] does the source give for Nc1c2c(nc3ccc(Oc4ccccc4)cc13)CCCC2 [Compound 7-PhOTHA, 7-phenoxytacrine, reference compound] here?
A: 23 nM and 22.6 nM

Q: For C#CCNc1c2c(nc3cc(Cl)ccc13)CCCC2 [Compound 11], which “% of MAO-B activity (1 µM)” value ([1]; residual enzyme activity) is on record?
A: 95%

Q: And the “% of MAO-A activity (1 µM)” value [2]?
A: 89%

Q: What about the “% of MAO-A activity (10 µM)” value [2] of the same molecule?
A: 39%

Q: And the hepatotoxicity ([3]; 100 µM)?
A: nearly no hepatotoxicity

Q: What about the cell survival rate ([3]; 200 µM) of the same molecule?
A: 57.78%

Q: And the IC50 [4]?
A: 1090 ± 63 nM

Q: What about the IC50 [5] of the same molecule?
A: 31 ± 3 nM

Q: And the “SI (hBChE/hAChE)” value [5]?
A: 35.10

Q: With C#CCNCCCNc1c2c(nc3cc(Cl)ccc13)CCCC2.Cl.Cl [Compound 23, N-(6-Chloro-1,2,3,4-tetrahydroacridin-9-yl)-N'-(prop-2-yn-1-yl)propane-1,3-diamine dihydrochloride] as the molecule, how does the “mode of enzyme inhibition” value [6] read?
A: non-competitive

Q: What about the “% of MAO-B activity (1 µM)” value ([1]; residual enzyme activity) of the same molecule?
A: 91%

Q: And the “% of MAO-B activity (10 µM)” value ([1]; residual enzyme activity, compound at 10 µM)?
A: 64%

Q: What about the “% of MAO-A activity (1 µM)” value [2] of the same molecule?
A: 104%

Q: What about the “% of MAO-A activity (10 µM)” value [2] of the same molecule?
A: 98%

Q: With C#CCN(CC#C)CCCNc1c2c(nc3ccc(Oc4ccccc4)cc13)CCCC2.Cl.Cl [Compound 25, N-(7-Phenoxy-1,2,3,4-tetrahydroacridin-9-yl)-N',N'-di(prop-2-yn-1-yl)-propane-1,3-diamine dihydrochloride] as the molecule, how does the IC50 [1] read?
A: 170 nM

Q: What about the “% of MAO-A activity (1 µM)” value [2] of the same molecule?
A: 96%

Q: What about the “% of MAO-A activity (10 µM)” value [2] of the same molecule?
A: 80%

Q: And the IC50 [4]?
A: 1150 ± 50 nM

Q: And the IC50 [5]?
A: 2210 ± 74 nM

Q: And the “SI (hBChE/hAChE)” value [5]?
A: 0.52

Q: For Nc1c2c(nc3ccccc13)CCCC2 [THA, tacrine, reference compound], which cell survival rate ([3]; 100 µM) is on record?
A: 59.49%

Q: And the cell survival rate ([3]; 200 µM)?
A: 48.65%

Where “and” joins values, the source holds several entries; their conditions need not be identical. Identical values can stand only once. Like-named read-outs stand apart in the source and are kept apart here.
